In PMC4336329 (PLoS ONE, 2015):
Hit rate of the full screen: of about 310,000 compounds, about 14,000 (4.5%) showed an effect of 50% or more. Effects have a minus sign here. The list shows a part of the results.

target: human ether-à-go-go-related gene (hERG) potassium channel (human, UniProt Q12809); assay: primary screen, population patch clamp on CHO cells stably expressing hERG
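Also: peak tail current of the secondary pulse compared with the same well before compound.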

Sequence of human ether-à-go-go-related gene (hERG) potassium channel (Q12809 whole entry, looked up): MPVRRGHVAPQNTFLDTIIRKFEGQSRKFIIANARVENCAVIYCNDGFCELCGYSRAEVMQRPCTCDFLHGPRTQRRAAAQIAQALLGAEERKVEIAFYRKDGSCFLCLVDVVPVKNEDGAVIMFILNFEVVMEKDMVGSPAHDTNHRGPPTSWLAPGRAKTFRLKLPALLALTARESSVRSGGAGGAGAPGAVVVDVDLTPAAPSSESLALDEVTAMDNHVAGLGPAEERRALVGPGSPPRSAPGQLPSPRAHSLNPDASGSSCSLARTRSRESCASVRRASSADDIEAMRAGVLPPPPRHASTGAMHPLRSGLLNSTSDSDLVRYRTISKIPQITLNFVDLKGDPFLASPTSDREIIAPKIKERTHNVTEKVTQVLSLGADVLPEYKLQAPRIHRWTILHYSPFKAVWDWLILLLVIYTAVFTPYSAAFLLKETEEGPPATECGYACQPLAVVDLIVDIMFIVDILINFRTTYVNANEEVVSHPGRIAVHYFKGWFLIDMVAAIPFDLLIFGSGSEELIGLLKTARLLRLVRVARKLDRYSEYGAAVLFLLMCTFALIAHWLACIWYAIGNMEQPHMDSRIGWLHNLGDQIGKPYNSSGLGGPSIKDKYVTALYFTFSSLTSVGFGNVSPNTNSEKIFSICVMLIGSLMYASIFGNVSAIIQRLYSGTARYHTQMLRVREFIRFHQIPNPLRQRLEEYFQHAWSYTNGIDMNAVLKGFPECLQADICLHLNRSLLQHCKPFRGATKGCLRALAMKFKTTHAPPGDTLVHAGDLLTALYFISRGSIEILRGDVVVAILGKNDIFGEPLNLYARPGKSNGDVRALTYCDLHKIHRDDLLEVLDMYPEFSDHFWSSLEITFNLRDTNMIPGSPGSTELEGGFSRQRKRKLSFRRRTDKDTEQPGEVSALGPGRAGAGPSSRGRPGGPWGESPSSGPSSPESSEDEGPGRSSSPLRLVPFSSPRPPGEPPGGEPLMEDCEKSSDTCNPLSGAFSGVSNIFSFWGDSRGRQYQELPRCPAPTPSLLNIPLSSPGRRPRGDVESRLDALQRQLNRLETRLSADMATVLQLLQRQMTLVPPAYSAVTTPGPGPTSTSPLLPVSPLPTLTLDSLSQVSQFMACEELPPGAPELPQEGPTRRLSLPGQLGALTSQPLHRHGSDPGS

SMILES | hERG current change (%, negative = inhibition) at 10uM [%]
O=C(Nc1cc(S(=O)(=O)Nc2ccccc2Cl)ccc1O)c1cc2c(s1)CCCC2 | 24.7
Cn1c(/C=C/N2CCOCC2)c(C(=O)c2ccc(Br)cc2)c(=O)n(C)c1=O | -28.8
CCCN1Cc2cccc(C(=O)NCc3ccc(C)cc3)c2C1=O | -29.8
COc1cc(CNCc2ccccn2)ccc1OCc1c(Cl)cccc1Cl.Cl | -51.5
COc1ccc(C2c3ccc(O)cc3Oc3ncn4nc(-c5ccncc5)nc4c32)cc1OC (stereo not shown) | 5.39
Cc1c(/C=C/C(=O)c2ccccc2)cnn1C | -4.99
O=C(Nc1cccc(Cl)c1)OC1CN2CCC1CC2 (stereo not shown) | 29.5
COc1ccccc1N1CCN(Cc2nc3ccccc3[nH]2)CC1 | 1.11
CCOc1ccc2nc(NC(=O)CSc3nnc(-c4ccncc4)n3CC3CCCO3)sc2c1 (stereo not shown) | 3.71
Cc1nc2sccn2c(=O)c1S(=O)(=O)NC(C)c1ccccc1 (stereo not shown) | 5.95
CC(C)(C)C(=O)Nc1ccccc1N1CCN(C(=O)c2ccc(Cl)cc2)CC1 | -48.2
Fc1ccccc1Nc1nc(N2CCOCC2)nc(N2CCOCC2)n1 | 29.1
N#Cc1ccc(COC(=O)c2ccc(N3CCCC3)c([N+](=O)[O-])c2)cc1 | -23.8
O=C(CN1CCC(NC(=O)Nc2ccccc2)CC1)Nc1cccc([N+](=O)[O-])c1 | -40.6
CC(C)NC(=O)Cn1cc(S(=O)(=O)N2CCCC2)c(S(=O)(=O)N2CCCC2)c1 | 10.9
C[C@H](NC(=O)OCc1ccccc1)c1nnc([C@H](Cc2ccccc2)NC(=O)OC(C)(C)C)o1 | -18
O=C(CCC(=O)c1cccs1)NNC(=O)c1cccc(Cl)c1 | -8.43
O=c1[nH]c(/C(Cl)=C/c2cc(Cl)ccc2O)nc2cc(Cl)ccc12 | -6.62
CCCCC(=O)Nc1nc(C)c(C(C)=O)s1 | -0.362
COc1ccc(N/N=C(/C)c2cnnc(-c3ccccc3)n2)cc1 | -6.65
Cc1cc(NC(=O)CSc2nc3ccsc3c(=O)n2NC(=O)c2ccccc2)no1 | -1.69
CC(=O)N1CCN(C(=O)CCNS(=O)(=O)c2ccccc2)CC1 | 3.75

SMILES | hERG current change (%, negative = inhibition) at 10uM [%]
Cc1ccc(C(=O)N(CC(=O)NC2CCCCC2)c2ccccc2C)s1 | -17.6
CCC1Oc2ccc(C)cc2N(CC(=O)N(Cc2cccnc2)Cc2ccc(C)o2)C1=O (stereo not shown) | -32.8
O=C(CSCc1cnn(-c2ccccc2)c1-n1cccc1)NCC1CCCO1 (stereo not shown) | 0.25
Cc1cccc(OCCC(=O)Nc2ccc(S(=O)(=O)N3CCCC3)cc2)c1 | 11.7
CC(=Nc1ccc(O)cc1)c1sc2ccccc2c1O | 8.57
CCOC(=O)c1ccc(NC(=O)N(CC)CC)cc1 | 4.46
O=P(Nc1cccc(Cl)c1)(Oc1ccccc1)Oc1ccccc1 | 19
CC(C)(C)Nc1c(N)c(=O)oc2ccccc12 | 3.05
COc1ccc(Nc2nc3c(C)cccc3cc2C#N)cc1 | 11.6
COC(=O)C1=C(C)NC(C)=C(C(=O)OCCN(C)Cc2ccccc2)C1c1cccc([N+](=O)[O-])c1.Cl (stereo not shown) | 0.0465
CCN(CC)CCOCCOC(=O)C1(c2ccccc2)CCCC1.O=C(O)CC(O)(CC(=O)O)C(=O)O | -25.7
O=C(N/N=C/c1ccccc1)c1cc[n+]([O-])cc1 | 29.2
COc1ccc(CNC(=O)c2ccccc2NS(C)(=O)=O)cc1 | 3.91
CC(C)NC(=S)N1CCN(Cc2ccc3c(c2)OCO3)CC1 | 6.38
Cc1nn(C)c(C)c1/C=N/NC(=O)CCn1cc([N+](=O)[O-])cn1 | 10.3
COc1ccc(OC)c(CNc2c(C=O)c(=O)[nH]c3ccccc23)c1 | 23.9
NC(=O)c1cn(C2CCCCC2)c2ccccc2c1=O | -65.2
C#CCN(C)C(C)Cc1ccccc1.Cl (stereo not shown) | 6.85
Cc1ccc2c(N)c(C#N)sc2n1 | 14.1
Cc1nnc(NC(=O)c2oc3c(ccc4ccccc43)c2C)s1 | 23.4
CCN(CC)S(=O)(=O)c1ccc(C)c(NC(=O)COC(=O)[C@@H]2CCCN2C(=O)c2cccs2)c1 | -13.8
